Among all 310,000 compounds or so, about 2,200 (0.71%) showed an effect of 50% or more. The effect is printed as a negative number. Some of the results follow.
molecular target: human ether-à-go-go-related gene (hERG) potassium channel (human, UniProt Q12809); experiment: primary screen, population patch clamp on CHO cells stably expressing hERG
Sequence (Q12809 whole entry, looked up): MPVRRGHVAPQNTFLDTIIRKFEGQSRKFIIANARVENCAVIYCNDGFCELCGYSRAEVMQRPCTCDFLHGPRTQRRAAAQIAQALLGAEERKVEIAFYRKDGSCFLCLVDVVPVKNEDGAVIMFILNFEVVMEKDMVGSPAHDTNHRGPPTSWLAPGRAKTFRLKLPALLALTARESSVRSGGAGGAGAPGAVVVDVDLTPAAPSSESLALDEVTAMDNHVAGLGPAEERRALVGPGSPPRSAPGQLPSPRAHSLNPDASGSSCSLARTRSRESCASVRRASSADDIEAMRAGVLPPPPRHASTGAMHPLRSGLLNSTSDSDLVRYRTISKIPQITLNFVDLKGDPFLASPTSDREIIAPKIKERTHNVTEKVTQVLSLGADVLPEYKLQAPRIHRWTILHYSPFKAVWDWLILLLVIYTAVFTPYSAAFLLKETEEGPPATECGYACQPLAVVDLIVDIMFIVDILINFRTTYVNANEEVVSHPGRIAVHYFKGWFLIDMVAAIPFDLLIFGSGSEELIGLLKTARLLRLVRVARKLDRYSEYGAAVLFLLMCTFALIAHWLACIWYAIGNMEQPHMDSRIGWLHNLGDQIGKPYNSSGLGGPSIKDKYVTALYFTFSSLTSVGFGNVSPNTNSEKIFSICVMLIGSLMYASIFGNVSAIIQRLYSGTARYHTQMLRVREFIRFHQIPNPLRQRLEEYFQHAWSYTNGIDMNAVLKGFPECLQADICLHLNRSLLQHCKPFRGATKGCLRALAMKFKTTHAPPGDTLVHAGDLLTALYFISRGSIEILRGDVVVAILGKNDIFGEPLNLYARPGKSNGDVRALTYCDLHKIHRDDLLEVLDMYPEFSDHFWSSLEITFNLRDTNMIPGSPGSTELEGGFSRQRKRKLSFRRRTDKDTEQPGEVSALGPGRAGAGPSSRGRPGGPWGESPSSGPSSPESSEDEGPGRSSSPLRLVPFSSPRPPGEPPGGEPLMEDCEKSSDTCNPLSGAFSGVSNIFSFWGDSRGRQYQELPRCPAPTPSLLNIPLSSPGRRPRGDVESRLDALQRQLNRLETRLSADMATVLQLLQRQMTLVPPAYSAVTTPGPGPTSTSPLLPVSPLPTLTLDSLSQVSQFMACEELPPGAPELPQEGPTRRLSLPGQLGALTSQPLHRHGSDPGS

Compound	hERG current change (%, negative = inhibition) at 1uM [%]
NC(=O)COC(=O)CNC(=O)c1cc(Cl)cc([N+](=O)[O-])c1	12.5
COc1ccc(C(=O)NCCS(=O)(=O)NC(C)c2ccccc2)cc1 (centres unmarked)	2.49
CC(=O)c1c(C)oc2ccc(N(C(C)=O)S(=O)(=O)c3ccc(F)cc3C)cc12	8.28
CCOc1ccc(NC(=O)C2CC(=O)N=C(N)S2)cc1 (centres unmarked)	11.7
CSc1ncccc1C(=O)OCC(=O)N1CCOCC1	12.6
COc1ccc(N2CCN(C(=O)COC(=O)CCc3ccccc3OC)CC2)cc1	1.44
O=C(Nc1ccc2nc(-c3cccnc3)[nH]c2c1)C12CC3CC(CC(C3)C1)C2	10.6
Cc1ccc(Nc2cc(C)nc3c(C)ccc([N+](=O)[O-])c23)cc1	11.7
C=CCNC(=S)N1CCN(Cc2ccc3c(c2)OCO3)CC1.O=C(O)C(=O)O	10.1
C=CCn1c(O)c(C=NC2CCN(Cc3ccccc3)CC2)c(=O)[nH]c1=O	-2.64
CCNCCC(=O)N1c2ccccc2Sc2ccc(C(F)(F)F)cc21.Cl	12.1
NC(=S)Nn1c(CCC(=O)O)ccc1-c1ccccc1	6.34
COc1ccccc1C(=O)N/N=C(\C)CC(=O)Nc1ccccc1NC(C)=O	11.3
C=CCN(CC=C)C(=O)C[n+]1ccc(C(N)=O)cc1.[Cl-]	6.33
CSC(=NC#N)N1CCN(C(c2ccccc2)c2ccccc2)CC1	3.34
CCN(c1ccccc1)S(=O)(=O)c1cccc(C(=O)NCc2cccnc2)c1	1.22
Cc1cc(NC(=O)Nc2ccccc2[N+](=O)[O-])n(C)n1	15.8
N#Cc1ccc(-c2ccc(F)cc2)nc1Sc1ccc(F)cc1	1.32
O=C(CN1CCOCC1)N/N=C/c1ccccc1	9.36
Brc1ccc2nc(-c3c[nH]c4ccccc34)cn2c1	11.8
O=C(NCc1cccc(CNC(=O)Nc2cccc(O)c2)c1)Nc1cccc(O)c1	17.1
c1ccc(Cn2c3ccccc3c3nnc(SCCN4CCCCC4)nc32)cc1	-6.31
CCC(C)[C@H]1CNC(=S)N1CCc1cc(C(F)(F)F)cc(C(F)(F)F)c1 (some centres unmarked)	10.7

Compound	hERG current change (%, negative = inhibition) at 1uM [%]
CC(=O)N(C)c1cccc([N+](=O)[O-])c1	9.66
Cc1ccc2c(c1)N(CC(=O)N1CCOCC1)C(=O)CO2	8.67
COc1cc(/C=C2/C(=O)NN(c3ccc(F)cc3)C2=O)cc(Cl)c1O	13.4
O=C(CCCOc1ccc(Br)cc1)Nc1ccc(S(=O)(=O)N2CCOCC2)cc1	11.4
Nc1nc(SCC(=O)N2CCOCC2)n[nH]1	17.9
COc1ccc(CCNC(=O)C2CCN(Cc3nc(-c4ccccc4F)oc3C)CC2)cc1OC	-17.3
CC(C)NC(=O)C1CCN(C2CCN(C(=O)c3scc4c3CCCC4)CC2)CC1	4.56
CC(C)Sc1nc2ccccc2n1CC(=O)NCc1ccc2c(c1)OCO2	15.8
COc1cc(NC(=S)N2CCC(C(O)(c3ccccc3)c3ccccc3)CC2)cc(OC)c1	1.23
CCOC(=O)N1CCN(C(=O)CN(C2CCCCC2)S(=O)(=O)c2ccc(Cl)cc2)CC1	10.9
Cc1cc(NC(=O)CSc2nc(-c3ccccc3Cl)nc3c2c(=O)n(C)c(=O)n3C)no1	9.96
CCOc1c(Cl)cc(CNCCc2c[nH]c3ccccc23)cc1OC.Cl	0.668
Cc1ccc(C(=O)C(C)OC(=O)CNC(=O)c2ccc(Br)o2)cc1 (centres unmarked)	-15.8
CC(NC(=O)c1ccncc1)c1ccc(Cl)cc1Cl (centres unmarked)	12.8
C[NH+](C)CCCN1c2ccccc2Sc2ccc(Cl)cc21.[Cl-]	-2.42
CCN1CCN(S(=O)(=O)c2ccc3c(c2)OCCO3)CC1	15.9
COC(=O)Cc1ccc(NC(=O)c2ccc3c(c2)C(=O)N(Cc2ccco2)C3=O)cc1	2.32
CCn1c(SCC(=O)c2ccccc2)nnc1-c1ccoc1C	8.33
O=C(NN=C1CCCC1)c1cc(-c2ccc(F)cc2)nc2ccccc12	8.24
Cc1cccc(N2CCN(CC(=O)Nc3ccccc3[N+](=O)[O-])CC2)c1C	7.72
COc1ccccc1C(=O)Nc1ccc(OC(C)C(=O)N2CCOCC2)cc1 (centres unmarked)	3.33
CCCc1cc(=O)n2[nH]c(-c3cccc(Br)c3)cc2n1	9
COc1cc(/C=N/NC(=O)c2ccncc2)ccc1OCC(=O)Nc1ccc(C)c(C)c1	5.37

Compound	hERG current change (%, negative = inhibition) at 1uM [%]
O=C(Nc1ccc(N2CCN(Cc3ccccc3)CC2)cc1)c1ncn[nH]1	11.1
COC(CNC(=O)C1CCCN(S(=O)(=O)c2c(C)noc2/C=C/c2cccs2)C1)OC (centres unmarked)	7.28
Cc1ccc(OCC(=O)Nc2ccc(S(=O)(=O)Nc3ccccn3)cc2)cc1C	12.3
CC(=O)c1sc(NC(=O)COc2c(C)cc(Cl)cc2C)nc1C	18
O=C(Nc1cccc(Cl)c1)c1ccc2ncsc2c1	14.7
COc1cccc(CNC(=O)CCCn2ccc3cc(S(=O)(=O)N4CCCC4)ccc32)c1	12.3
CSc1nncc(-c2ccc(F)cc2)n1	0.691
COc1ccc(Nc2nc3c(c(=O)n(C)c(=O)n3C)n2CCO)cc1	13.1
C/C(=N\NC(=O)Cc1cccn1C)c1cccs1	21.2
Cc1cc(C)c(S(=O)(=O)Nc2ccc(N(C)C)cc2)c(C)c1-n1cnnn1	9.5
Cc1cc(=O)oc2cc(OCC(=O)NC(Cc3c[nH]c4ccc(O)cc34)C(=O)O)c(Cl)cc12 (centres unmarked)	-7.05
Cc1ccc(N=Cc2ccc(O)cc2O)cc1F	17.7
C=CCn1c(C)cc(C(=O)CN2C(=O)c3ccccc3C2=O)c1C	5.61
Cc1ccc2ncnc(Nc3ccc(C)c(C)c3)c2c1	-0.718
COc1ccc(-c2cc3c(=O)n(CC(=O)NCCCN4CCC(N5CCCCC5)CC4)ncn3n2)cc1	16.5
CCn1cc(C(=O)O)c(=O)c2cc(S(=O)(=O)N(C)C)ccc21	-1.51
COCC1CCN(Cc2cn[nH]c2-c2ccc(OC)cc2F)C1 (centres unmarked)	3.85
CN(Cc1cn[nH]c1-c1ccc2c(c1)OCO2)C1CCOCC1	8.56
Cc1ccc(C(=O)CCC(=O)Nc2ccc(Cl)c(S(=O)(=O)Nc3cccc(Cl)c3)c2)cc1	9.32
CC(=O)Nc1ccc(C(=O)Nc2cccc(S(=O)(=O)N(C)c3ccccc3)c2)cc1	7.73
CS(=O)(=O)Cc1cccc(C(=O)NC2CCSc3ccccc32)c1 (centres unmarked)	16.3
CCc1nc2ccc(C)cc2c(C(=O)NC2CCCCC2C)c1C (centres unmarked)	-4.7
CCN(CC)S(=O)(=O)c1cccc(C(=O)OCC(=O)C23CC4CC(CC(C4)C2)C3)c1	6.54

Compound	hERG current change (%, negative = inhibition) at 1uM [%]
CC(C)(C)n1ncc2c(=O)n(CC(=O)Nc3ccc4c(c3)OCO4)cnc21	13.1
CC(=O)N1N=C(c2ccc(C)cc2)OC1c1cccnc1 (centres unmarked)	2.91
O=C(Nc1cc2c3c(c1)CC(=O)N3CCC2)C1CCCCC1	2.81
O=C(NCS(=O)(=O)c1ccccc1)c1ccccc1	2.78
NC(=O)CN1CCCN(S(=O)(=O)c2ccc(Br)cc2)CC1	-6.9
COc1ccccc1OCC(=O)OCn1c(SC)nnc(C)c1=O	22.1
O=C(NCc1nc2ccccc2[nH]1)C1=C[C@@H](C2CCCCC2)C[C@@H](OCCCCO)O1	10.9
CCN1CCCC1CN(Cc1cc2ccc(C)cc2[nH]c1=O)C(=S)Nc1ccccc1OC (centres unmarked)	17.1
Cc1cc(NC(=O)Nc2ccc3c(ccn3C)c2)sn1	16.1
COc1cccc(NC(=O)C2C3C=CC(O3)C2C(=O)NCc2cccnc2)c1 (centres unmarked)	-17.7
CCN1CCN(Cc2ccc(C)cc2C)CC1	11.9
CCCn1c(N2CCN(CC(=O)Nc3ccc4c(c3)OCCO4)CC2)nc2ccccc21.Cl	-29.2
Cc1ccn2c(=O)c(NC(=O)c3ccc(Br)o3)c(C)nc2c1	13.6
Cc1sc2nc(SCC(=O)Nc3ccccc3F)[nH]c(=O)c2c1C	13.4
COc1ccc(CC(=O)N2CCc3ccccc3C2)cc1	7.2
Nc1ccc(C(=O)Nc2cccc(N)c2)cc1	13.9
c1cc2c(cc1Cn1cnnn1)OCO2	12.6
CC1(C)Cc2cccc(OCC(=O)N3CCN(c4ccccc4)CC3)c2O1	-2.57
C/C=C(/C)C(=O)O[C@@H]1c2c(ccc3ccc(=O)oc23)O[C@@H]1C(C)(C)OC(=O)/C(C)=C\C	11.4
COc1cc(/C=C/C(=O)OCC(=O)N2CCCC2)cc(OC)c1OC	10.9

Reference: publication PMC4336329 (PLoS ONE, 2015)
